The subject of data set [1] is MOLM-13 cells. Briefly: MOLM-13 xenograft model. How it is done: The study was performed at the TCDM, University of Turku, Finland, according to the appropriate ethical committee approval. Cells for inoculation to mice were prepared in vigorous exponential growth phase. 2 million MOLM-13 cells in 50% Matrigel were inoculated s.c. to the flank of each mouse (female athymic nude mice between 8-10 weeks of age). Clinical signs and general behavior of the animals were observed regularly. […] Tumor growth was followed by palpation. After caliper measurement, tumor volume was calculated according to 0.5×length×width^2. […] Mice were evenly divided into study groups, 6 mice in each group, so that each group received similar distribution of different-sized tumors and the average tumor volumes were similar in each group. Intravenous (i.v.) treatment in PBS was given once on day 1 of treatment as a single dose regimen (on day 8 after tumor inoculation). The experiment lasted to day 46 after treatment (day 54 after tumor inoculation).

Data set [2] relates to CD33+ MOLM-13 leukemia cells. Briefly: In vitro cytotoxicity assay, Example 4 (FIG. 3B). Format: cell-based. The note with it: MOLM-13 cells, DAR=8. On the procedure:
HER2+ SK-BR-3 breast cancer cells (ATCC) and CD33+ MOLM-13 leukemia cells (DSMZ, German Collection of Microorganisms and Cell Cultures) were cultured essentially according to the providers' instructions. […] FIG. 3A: HER2+ SK-BR-3 breast cancer cells were incubated with trastuzumab-exatecan ADC TRExM01, trastuzumab-deruxtecan ADC TRDxM01 and free exatecan payload (provided as mesylate salt). […] FIG. 3B: CD33+ MOLM-13 leukemia cells were incubated with lintuzumab-exatecan ADC LNExM01 and lintuzumab-deruxtecan ADC TRDxM01.

Data set [3] in a line: Aqueous solubility / attainable concentration of ADC on purification and concentration. In kind it is physicochemical. The note with it: aqueous buffer.
[4] abbreviates: single i.v. 10 mg/kg dose, day 54 after inoculation.

B1: LNExM: lintuzumab-exatecan ADC with ExM linker-payload, DAR close to 8; 01/02 are batches (conjugate, chains of the INN, looked up)
heavy: QVQLVQSGAEVKKPGSSVKVSCKASGYTFTDYNMHWVRQAPGQGLEWIGYIYPYNGGTGYNQKFKSKATITADESTNTAYMELSSLRSEDTAVYYCARGRPAMDYWGQGTLVTVSS[letters of human IgG1 constant region left out]
light: DIQMTQSPSSLSASVGDRVTITCRASESVDNYGISFMNWFQQKPGKAPKLLIYAASNQGSGVPSRFSGSGSGTDFTLTISSLQPDDFATYYCQQSKEVPWTFGQGTKVEIKRTVAAPSVFIFPPSDEQLKSGTASVVCLLNNFYPREAKVQWKVDNALQSGNSQESVTEQDSKDSTYSLSSTLTLSKADYEKHKVYACEVTHQGLSSPVTKSFNRGEC
modifications: exatecan ExM linker-payload, DAR 8
notes: lintuzumab-exatecan ADC with ExM linker-payload, DAR close to 8; 01/02 are batches
Turning to B1, the “tumor growth inhibition (in words)” value in data set [1] (single i.v. 10 mg/kg dose, s.c. tumors about 120 mm^3) was “even more effective than LNDxM in reducing the average tumor volumes”. Also, in data set [1] (setting [4]), the “tumor-free mice at the end of the study (mice out of 6)” value is given as 5/6 and the “tumor-free mice at the end of the study, %” value is 83%. The “deaths due to tumor growth (mice out of 6)” value in data set [1] (single i.v. 10 mg/kg dose, death on day 47 after tumor inoculation) was “no deaths occurred”. The signs of toxicity entry in data set [1] (single i.v. dose, clinical signs and general behavior) is “No signs of toxicity were recorded”. The “cytotoxicity (in words)” value in data set [2] was “more cytotoxic to the CD33+ leukemia cells than LNDxM01”.

B2: LNExMu: ADC from lintuzumab antibody and ExMu linker-payload comprising the PABC self-immolative group (conjugate, chains of the INN, looked up)
heavy: B1 heavy
light: B1 light
modifications: exatecan ExMu PABC linker-payload
notes: ADC from lintuzumab antibody and ExMu linker-payload comprising the PABC self-immolative group
For B2, the “maximum concentration reached in purification and concentration attempts” value in data set [3] is recorded as 0.36 mg ADC/ml.
